Laboratory results as given in PMC9098178, “SAR of Novel 3-Arylisoquinolinones: meta-Substitution on the Aryl Ring Dramatically Enhances Antiproliferative Activity through Binding to Microtubules” (Journal of Medicinal Chemistry, 2022).

Test system: HepG2 cells
Experiment: Cell cycle analysis by flow cytometry
Details: 5 μM, 24 h treatment

O=c1[nH]c(-c2cccc(F)c2)cc2cc(F)ccc12 [compound 4, 6-Fluoro-3-(3-fluorophenyl)isoquinolin-1(2H)-one]
cells in G0/G1 phase: 11.7 ± 2.9% | cells in G2/M phase: 62.2 ± 6.3%
